Results from the supplement of paper PMC12217912.
The list shows a part of the results. The full chains were built here from the parent and the listed change. Values near 0.05 are background.

B1: TEV protease; numbered along this chain (parent)
chain: MGESLFKGPRDYNPISSSICHLTNESDGHTTSLYGIGFGPFIITNKHLFRRNNGTLVVQSLHGVFKVKDTTTLQQHLVDGRDMIIIRMPKDFPPFPQKLKFREPQREERICLVTTNFQTKSMSSMVSDTSCTFPSGDGIFWKHWIQTKDGQCGSPLVSTRDGFIVGIHSASNFTNTNNYFTSVPKNFMELLTNQEAQQWVSGWRLNADSVLWGGHKVFMVKPEEPFQPVKEATQL

Variants of: B1
Test: raw area under fraction-flipped curve 0-4 h after induction (AUC4h, not background-subtracted), DNA-recorder readout of cleavage of the substrate (dimensionless); higher = more cleavage of the substrate by the protease variant
Settings: temperature: 34 °C; time window: 0-4 h after rhamnose induction
Protocol: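 In vivo DNA recorder in E. coli TOP10(DE3) ΔrhaA at 34 °C. Each TEVp single-site mutant (parent TEVp 0) is paired with a single-site variant of the 7-mer TEVs (canonical ENLYFQ|S). The substrate sits between flexible linkers in a Bxb1-sfGFP-TEVs-SsrA fusion, so cleavage stabilises Bxb1 and speeds flipping of a recombination array, read by NGS. The value is the raw area under the fraction-flipped curve over 0-4 h after rhamnose induction (AUC4h), with ≥20 reads per time point. It is not background-subtracted; inactive controls average about 0.047.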
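Note: Bxb1 expression induced with 0.2% (w/v) L-rhamnose at OD600 near 0.5, cultures sampled hourly, flipped fraction per protease–substrate barcode pair counted by paired-end Illumina sequencing.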

| Variant | area with substrate ENAYFQS | area with substrate ENCYFQS | area with substrate ENDYFQS | area with substrate ENEYFQS | area with substrate ENFYFQS | area with substrate ENGYFQS | area with substrate ENHYFQS | area with substrate ENIYFQS | area with substrate ENKYFQS | area with substrate ENNYFQS | area with substrate ENPYFQS | area with substrate ENQYFQS | area with substrate ENRYFQS | area with substrate ENSYFQS | area with substrate ENTYFQS | area with substrate ENVYFQS | area with substrate ENWYFQS | area with substrate ENMYFQS | area with substrate ENYYFQS |
| --- | --- | --- | --- | --- | --- | --- | --- | --- | --- | --- | --- | --- | --- | --- | --- | --- | --- | --- | --- |
| MGESLFKGPRDYNPISSSICHLTNESDGHTTSLYGIGFGPFIITNKHLFRRNNGTLVVQSLHGVFKVKDTTTLQQHLVDGRDMIIIRMPKDFPPFPQKLKFREPQREERICLVTTNFQTKSMSSMVSDTSCTFPSGDGIFWKHWIQTKDGQCGSPLVSTRDGFIVGIHSASNFTNTNNYFTSVPKNFMELLTNQEAQQWVSGWRLDADSVLWGGHKVFMVKPEEPFQPVKEATQL [N206D] | 0.0539 | 0.0136 | 0.0654 | 0.0623 | 0.0645 | 0.0702 | 0.0501 | 0.157 | 0.0592 | 0.0522 | 0.051 | 0.0332 | 0.0686 | 0.146 | 0.0687 | 0.0882 | 0.0464 |  |  |
| MGESLFKGPRDYNPISSSICHLTNESDGHTTSLYGIGFGPFIITNKHLFRRNNGTLVVQSLHGVFKVKDTTTLQQHLVDGRDMIIIRMPKDFPPFPQKLKFREPQREERICLVTTNFQTKSMSSMVSDTSCTFPSGDGIFWKHWIQTKDGQCGSPLVSTRDGFIVHIHSASNFTNTNNYFTSVPKNFMELLTNQEAQQWVSGWRLNADSVLWGGHKVFMVKPEEPFQPVKEATQL [G166H] | 0.0404 | 0.0558 | 0.0468 | 0.0596 | 0.0594 | 0.0546 |  |  | 0.0461 | 0.0562 |  | 0.053 | 0.0481 |  | 0.0556 | 0.0458 | 0.0625 | 0.0555 | 0.0697 |
| MGESLFKGPRDYNPISSSICHLTNESDGHTTSLYGIGFGPFIITNKHLFRRNNGTLVVQSLHGVFKVKDTTTLQQHLVDGRDMIIIRMPKDFPPFPQKLKAREPQREERICLVTTNFQTKSMSSMVSDTSCTFPSGDGIFWKHWIQTKDGQCGSPLVSTRDGFIVGIHSASNFTNTNNYFTSVPKNFMELLTNQEAQQWVSGWRLNADSVLWGGHKVFMVKPEEPFQPVKEATQL [F101A] | 0.0741 | 0.0551 |  |  |  |  | 0.0517 |  |  |  |  | 0.0562 |  |  |  |  |  |  |  |
| MGESLFKGPRDYNPISSSICHLTNESDGHTTSLYGIGFGPFIITNKHLFRRNNGTLVVQSLHGVFKVKDTTTLQQHLVDGRDMIIIRMPKDFEPFPQKLKFREPQREERICLVTTNFQTKSMSSMVSDTSCTFPSGDGIFWKHWIQTKDGQCGSPLVSTRDGFIVGIHSASNFTNTNNYFTSVPKNFMELLTNQEAQQWVSGWRLNADSVLWGGHKVFMVKPEEPFQPVKEATQL [P93E] | 0.0485 | 0.0409 | 0.0635 | 0.0636 |  |  |  |  | 0.059 | 0.0498 | 0.0578 | 0.0621 |  |  |  | 0.108 |  |  |  |
| MGESLFKGPRDYNPISSSICHLTNESDGHTTSLYGIGFGPFIITNKHLFRRNNGTLVVQSLHGVFKVKDTTTLQQHLVDGRDMIIIRMPKDFPPFPQKLKFREPQREERICLVTTNFQTKSMSSMVSDTSCTFPSGDGIFWKSWIQTKDGQCGSPLVSTRDGFIVGIHSASNFTNTNNYFTSVPKNFMELLTNQEAQQWVSGWRLNADSVLWGGHKVFMVKPEEPFQPVKEATQL [H143S] | 0.0699 | 0.058 | 0.0596 | 0.0572 | 0.0582 |  |  | 0.0883 | 0.0574 | 0.0573 |  |  | 0.0982 |  | 0.0724 | 0.063 |  |  |  |
| MGESLFKGPRDYNPISSSICHLTNESDGHTTSLYGIGFGPFIITNKHLFRRNNGTLVVQSLHGVFKVKDTTTLQQHLVDGRDMIIIRMPKDFPPFPQKLKFREPQREERICLVTTNFQTKSMSSMVSDTACTFPSGDGIFWKHWIQTKDGQCGSPLVSTRDGFIVGIHSASNFTNTNNYFTSVPKNFMELLTNQEAQQWVSGWRLNADSVLWGGHKVFMVKPEEPFQPVKEATQL [S130A] | 0.05 | 0.0593 | 0.0613 | 0.063 | 0.0764 |  |  |  |  | 0.063 |  | 0.06 |  | 0.066 |  | 0.0793 | 0.0321 |  | 0.0631 |
| MGESLFKGPADYNPISSSICHLTNESDGHTTSLYGIGFGPFIITNKHLFRRNNGTLVVQSLHGVFKVKDTTTLQQHLVDGRDMIIIRMPKDFPPFPQKLKFREPQREERICLVTTNFQTKSMSSMVSDTSCTFPSGDGIFWKHWIQTKDGQCGSPLVSTRDGFIVGIHSASNFTNTNNYFTSVPKNFMELLTNQEAQQWVSGWRLNADSVLWGGHKVFMVKPEEPFQPVKEATQL [R10A] | 0.0494 | 0.0788 |  |  | 0.0761 |  |  | 0.124 |  | 0.0561 | 0.0595 | 0.0632 | 0.0564 | 0.0522 | 0.0583 | 0.0709 |  |  |  |
| MGESLFKGPRDYNPISSSICHLTNESDGHTTSLYGIGFGPFIITNKHLFRRNNGTLVVQSLHGVFKVKDTTTLQQHLVDGRDMIIIRMPKDFPPFPQKLKFREPQREERICLVTTNFQTKSMSSMVSDTSCTFPSGDGIFWKHWIQTKDGQCGSPLVSTRDGFIVGIHSASNFTNTNNYFTSVPKNFMELLTNQEAQQWVSGWRLNADSVGWGGHKVFMVKPEEPFQPVKEATQL [L211G] | 0.052 |  | 0.0629 | 0.0648 | 0.0569 |  |  |  |  | 0.0578 | 0.0759 | 0.0666 | 0.0471 |  |  |  |  |  |  |
| MGESLFKGPRDYNPISSSICHLTNESDGHTTSLYGIGFGPFIITNKHLFRRNNGTLVVQSLHGVFKVKDTTTLQQHLVDGRDMIIIRMPKDFPPFPQKLKFREPQREERICLVTTNFQTKSMSSMVSDTSCTFPSGDGIFWKHWIQTKDGQCGSPLVSTRDGFIVGIHSASNFTNTNNYFTSVPKNFMELLTNQEAQQWVSGWRLNADSVEWGGHKVFMVKPEEPFQPVKEATQL [L211E] | 0.0415 | 0.0684 | 0.0514 | 0.0553 | 0.0697 | 0.0786 | 0.0604 | 0.158 | 0.0682 | 0.0577 | 0.0445 | 0.0677 | 0.075 | 0.0637 | 0.0547 | 0.0901 | 0.0557 |  | 0.0745 |
